Laboratory results reported in the supplement of paper PMC9446081.
Among all 39,000 compounds or so, about 220 (0.56%) showed activity. Some of the results follow.

Each compound was assayed on Escherichia coli K-12 BW25113 (assay: relative growth (OD600 normalised to plate interquartile mean) (fraction); higher = less growth inhibition, active = 0.2 or less). Details: 50 µM; LB; incubation time: overnight (16-24 h).
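Further: static incubation at 37 °C against the wild-type strain, values averaged over two biological replicates.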

| SMILES | relative growth |
| --- | --- |
| CC(C)NC(=O)Nc1ccc2c(c1)C(=O)N([C@H](C)CO)C[C@@H](C)[C@H](CN(C)Cc1ccc(C(=O)O)cc1)O2 | inactive: 1.02 |
| CC1(C)CCCC2(C)C1CCC1(C)OC(=O)CC12 (centres undefined) | inactive: 0.873 |
| COC1=C2C[C@@H](C)C[C@H](OC)[C@H](O)[C@@H](C)/C=C(\C)[C@H](OC(N)=O)[C@@H](OC)/C=C\C=C(/C)C(=O)NC(=CC1=O)C2=O | inactive: 1.01 |
| C[C@@H]1CN([C@H](C)CO)C(=O)c2cc(NC(=O)Nc3ccc(C(F)(F)F)cc3)ccc2O[C@@H](C)CCCCO[C@H]1CN(C)Cc1ccc(C(F)(F)F)cc1 | inactive: 1.04 |
| Cc1ccc(S(=O)(=O)N2C[C@@H](O)COC[C@H]3O[C@H](CC(=O)N[C@@H]4CCN(Cc5ccccc5)C4)CC[C@@H]32)cc1 | inactive: 0.987 |
| COCCNC(=O)C[C@@H]1CC[C@H]2[C@@H](COC[C@@H](O)CN2S(=O)(=O)c2ccccc2C)O1 | inactive: 1.01 |
| COCC(=O)N1CC[C@]2(CC1)CN(Cc1cccc(c1)OC)[C@H](CO)c1c2c2ccc(cc2n1C)OC | inactive: 1.02 |
| C[C@@H]1CCCCO[C@@H](CN(C)C(=O)Nc2cccc3ccccc23)[C@@H](C)CN([C@@H](C)CO)C(=O)c2cc(NC(=O)Nc3ccc(C(F)(F)F)cc3)ccc2O1 | inactive: 1.03 |
| COc1cccc(S(=O)(=O)N(C)C[C@@H]2Oc3cc(C#CCN(C)C)ccc3S(=O)(=O)N([C@H](C)CO)C[C@H]2C)c1 | inactive: 0.997 |
| C[C@@H]1CN([C@@H](C)CO)C(=O)c2cccc(NC(=O)Nc3ccc(C(F)(F)F)cc3)c2O[C@@H]1CN(C)C(=O)Nc1cccc2ccccc12 | inactive: 0.969 |
| C[C@H](CO)N1C[C@H](C)[C@H](CN(C)S(=O)(=O)c2ccccc2)Oc2ncc(-c3cccc(C(=O)N(C)C)c3)cc2C1=O | inactive: 1 |
| C[C@@H]1CN([C@@H](C)CO)C(=O)c2cccc(NC(=O)Nc3ccc(C(F)(F)F)cc3)c2O[C@@H]1CN(C)Cc1ccc(C(=O)O)cc1 | inactive: 0.987 |
| CC(C)NC(=O)Nc1cccc2c1O[C@H](CN(C)S(=O)(=O)c1ccc(F)cc1)[C@@H](C)CN([C@H](C)CO)C2=O | inactive: 1.02 |
| COc1ccc2c3c([nH]c2c1)[C@H](CO)N(C[C@]13CN(Cc2ccccc2)C1)S(=O)(=O)c1cn(cn1)C | inactive: 0.978 |
| CC(C)C(=O)[C@@H]1C(=O)O[C@@H](c2ccoc2)[C@]2(C)[C@H](O)[C@@H](O)[C@@]34O[C@]5(C)O[C@]3([C@H]12)[C@H](O)[C@@]1(O)[C@H](O)[C@]2(C)C[C@]1(O5)[C@@]4(C)[C@H]2CC(=O)O | inactive: 1.03 |
| C[C@H]1CCCCO[C@@H](CN(C)Cc2ccc(C(=O)O)cc2)[C@@H](C)CN([C@@H](C)CO)C(=O)c2cc(NS(=O)(=O)c3cccs3)ccc2O1 | inactive: 1.04 |
| COc1cccc(CN2C[C@@H](C)[C@H](OC)CN(C)C(=O)c3cc(NS(=O)(=O)c4cn(C)cn4)ccc3OC[C@H]2C)c1 | inactive: 1.01 |
| C=CC(=O)Nc1cccc(C)c1Nc1ncc2cc(-c3c(Cl)c(OC)cc(OC)c3Cl)ccc2n1 | inactive: 0.979 |
| Cc1ccc(S(=O)(=O)Nc2ccc3c(c2)C(=O)N([C@@H](C)CO)C[C@H](C)[C@H](CN(C)CC2CCCCC2)OCCCC[C@H](C)O3)cc1 | inactive: 0.979 |
| CN(C[C@@H](O)CN)S(=O)(=O)c1ccccc1 | inactive: 1.01 |

| SMILES | relative growth |
| --- | --- |
| C[C@H](CO)N1C[C@H](C)[C@@H](CN(C)Cc2ccccc2)Oc2c(NC(=O)c3ccc(-c4nccs4)cc3)cccc2C1=O | inactive: 1.03 |
| O=C(O)C1CCN(c2ncccn2)CC1 | inactive: 1.02 |
| C[C@H]1CN([C@@H](C)CO)C(=O)c2cccc(NC(=O)Nc3ccccc3)c2O[C@@H]1CN(C)C(=O)Nc1ccc(C(F)(F)F)cc1 | inactive: 0.753 |
| C[C@H]1CN([C@@H](C)CO)C(=O)Cc2cc(NC(=O)Cn3cnnn3)ccc2O[C@@H]1CN(C)S(=O)(=O)c1cccs1 | inactive: 0.997 |
| CC(C)NC(=O)Nc1ccc2c(c1)C(=O)N([C@@H](C)CO)C[C@@H](C)[C@H](CN(C)S(=O)(=O)c1cn(C)cn1)OCCCC[C@H](C)O2 | inactive: 0.984 |
| Cc1noc(C)c1S(=O)(=O)N(C)C[C@H]1OCCCC[C@@H](C)Oc2ccc(NC(=O)Nc3ccc(C(F)(F)F)cc3)cc2C(=O)N([C@H](C)CO)C[C@@H]1C | inactive: 0.978 |
| COc1ccc(S(=O)(=O)N(C)C[C@@H]2Oc3c(NS(=O)(=O)c4ccc(C)cc4)cccc3C(=O)N([C@H](C)CO)C[C@@H]2C)cc1 | inactive: 1.02 |
| C[C@@H]1CN([C@H](C)CO)C(=O)c2cc(NC(=O)Nc3cccc4ccccc34)ccc2O[C@H]1CN(C)C(=O)Nc1ccc(C(F)(F)F)cc1 | inactive: 0.946 |
| C[C@H]1CN([C@@H](C)CO)C(=O)Cc2cc(NC(=O)C3CC3)ccc2O[C@@H]1CN(C)C(=O)Nc1ccc(F)cc1 | inactive: 1.02 |
| C=CC(=O)N[C@@H]1c2ccccc2C[C@@H]1O | inactive: 1.02 |
| Cl.N=c1ccn2c(n1)OC1C(O)C(CO)OC12 (centres undefined) | inactive: 1.09 |
| COc1ccc(NC(=O)Nc2ccc3c(c2)[C@H]2C[C@H](CC(=O)NCC(F)(F)F)O[C@H](CO)[C@H]2O3)cc1 | inactive: 1.02 |
| COCC(=O)N1[C@H](C(=O)N2CCN(C)CC2)[C@@H](CO)[C@@H]2Cn3c(ccc(C4=CCCCC4)c3=O)[C@@H]21 | inactive: 1.01 |
| C[C@H](CO)N1C[C@H](C)[C@H](CN(C)Cc2ccc(-c3ccccc3)cc2)Oc2c(NC(=O)c3nc4ccccc4s3)cccc2C1=O | inactive: 1.01 |
| C[C@@H]1CCCCO[C@@H](CN(C)Cc2ccccc2)[C@@H](C)CN([C@@H](C)CO)C(=O)c2cc(NC(=O)c3ccccc3)ccc2O1 | inactive: 1 |
| COc1ccccc1S(=O)(=O)N[C@@H]1CC[C@H](CCNC(=O)C2CC2)O[C@H]1CO | inactive: 0.984 |
| O=C(Cc1ccccc1)Nc1ccccc1Sc1ccccc1 | inactive: 1.01 |
| CC(C)c1cn(CC[C@H]2CC[C@H](N)[C@@H](CO)O2)nn1 | inactive: 0.981 |
| COc1cccc(S(=O)(=O)N2C[C@H](O)COC[C@H]3O[C@H](CC(=O)N4CCN(C)CC4)CC[C@@H]32)c1 | inactive: 0.992 |
| NCCCCCc1nc2ccccc2[nH]1 | inactive: 0.944 |

| SMILES | relative growth |
| --- | --- |
| NC(=S)Nc1ccncc1 | inactive: 1.02 |
| COc1ccc(C#Cc2cnc3c(c2)C(=O)N([C@@H](C)CO)C[C@@H](C)[C@@H](CN(C)C(=O)CN(C)C)O3)cc1 | inactive: 1.03 |
| C[C@@H]1CCCCO[C@H](CN(C)C(=O)CCC(F)(F)F)[C@@H](C)CN([C@@H](C)CO)C(=O)c2cc(NC(=O)CCCCCC(=O)Nc3ccccc3N)ccc2O1 | inactive: 1.07 |
| COc1ccc(S(=O)(=O)N(C)C[C@@H]2Oc3c(NC(=O)C4CC4)cccc3C(=O)N([C@@H](C)CO)C[C@H]2C)cc1 | inactive: 0.997 |
| CCNC(=O)C[C@@H]1C=C[C@H](NC(=O)C2CC2)[C@H](CO)O1 | inactive: 1.01 |
| C[C@@H]1CN([C@H](C)CO)C(=O)c2cccc(NC(=O)Nc3ccc(C(F)(F)F)cc3)c2O[C@H]1CN(C)S(=O)(=O)c1ccc(F)cc1 | inactive: 0.863 |
| C[C@H](CO)N1C[C@H](C)[C@H](CN(C)Cc2ccc(C(F)(F)F)cc2)OCCCC[C@H](C)Oc2ccc(NC(=O)NC3CCCCC3)cc2C1=O | inactive: 1 |
| Cc1ccc(S(=O)(=O)N(C)C[C@H]2Oc3ccc(NS(=O)(=O)c4ccc(F)cc4)cc3C(=O)N([C@@H](C)CO)C[C@@H]2C)cc1 | inactive: 0.996 |
| NC(=O)[C@H]1[C@@H]2C(=O)O[C@@H](c3ccccc3)[C@@H](c3ccccc3)N2[C@@H](c2ccc(O)cc2)[C@]12C(=O)Nc1ccc(C#CC3(O)CCCCCC3)cc12 | inactive: 1.02 |
| COc1cc2c(cc1OC)C(=O)NCC2 | inactive: 1.01 |
| C[C@@H]1CCCCO[C@@H](CN(C)C(=O)Cc2ccccc2)[C@H](C)CN([C@@H](C)CO)C(=O)c2cc(NC(=O)Nc3cccc4ccccc34)ccc2O1 | inactive: 1.03 |
| COc1ccc(NC(=O)N(C)C[C@@H]2OCCCC[C@@H](C)Oc3ccc(NC(=O)CCC(F)(F)F)cc3C(=O)N([C@@H](C)CO)C[C@H]2C)cc1 | inactive: 0.994 |
| COc1ccccc1CNC(=O)C[C@@H]1C[C@H]2c3cc(NC(=O)Nc4ccc(C(F)(F)F)cc4)ccc3O[C@H]2[C@H](CO)O1 | inactive: 0.998 |
| Cc1ccc(S(=O)(=O)Nc2cccc3c2O[C@H](CN(C)S(=O)(=O)c2cccs2)[C@H](C)CN([C@H](C)CO)C3=O)cc1 | inactive: 0.937 |
| C[C@H](CO)N1C[C@H](C)[C@@H](CN(C)S(C)(=O)=O)Oc2c(NC(=O)c3ccc(-c4nccs4)cc3)cccc2C1=O | inactive: 0.99 |
| C[C@@H]1CCCCO[C@H](CN(C)C(=O)CCC(F)(F)F)[C@@H](C)CN([C@@H](C)CO)C(=O)c2cc(NC(=O)CCC(F)(F)F)ccc2O1 | inactive: 1 |
| COc1ccc(-c2ccc3n(c2=O)C[C@@H]2[C@@H](CO)[C@H](C(=O)NCC4CC4)[C@H]3N2S(C)(=O)=O)cc1 | inactive: 0.991 |
| CCCNC(=O)N1C[C@H](O)COC[C@H]2O[C@H](CC(=O)N3CCN(C)CC3)CC[C@@H]21 | inactive: 1.02 |
| COc1cc2c(cc1OC)-c1onc(-c3ccc(OCCO[Si](C(C)C)(C(C)C)C(C)C)cc3)c1CCCN(C[C@@H](C)O)CC2 | inactive: 0.89 |
